According to PubChem BioAssay AID2451 (National Center for Advancing Translational Sciences (NCATS), 2010):
Out of some 290,000 compounds screened, about 2,100 (0.72%) were called active. The shares of active, inactive and inconclusive entries below differ from those in the screen. Calls come from the whole dose curve; as a rule, active = well fitted inhibition curve with a large enough effect; inconclusive = small, poorly fitted or top-dose-only effect, or effect the other way; inactive = flat fitted curve, though single readings scatter. A potency beside an inconclusive call is a rough fit, not a confirmed value.

molecular target: Fructose-bisphosphate aldolase (Giardia intestinalis (strain ATCC 50803 / WB clone C6)) (UniProt A8B2U2); experiment: qHTS Assay for Inhibitors of Fructose-1,6-bisphosphate Aldolase from Giardia Lamblia; conditions: purified Giardia FBPA; activity, negative = inhibition: at 59.6 µM (top of the series) unless noted; note: nearly all actives have a fitted effect of over 55% in size
UniProt A8B2U2, sequence (A8B2U2 whole entry, looked up): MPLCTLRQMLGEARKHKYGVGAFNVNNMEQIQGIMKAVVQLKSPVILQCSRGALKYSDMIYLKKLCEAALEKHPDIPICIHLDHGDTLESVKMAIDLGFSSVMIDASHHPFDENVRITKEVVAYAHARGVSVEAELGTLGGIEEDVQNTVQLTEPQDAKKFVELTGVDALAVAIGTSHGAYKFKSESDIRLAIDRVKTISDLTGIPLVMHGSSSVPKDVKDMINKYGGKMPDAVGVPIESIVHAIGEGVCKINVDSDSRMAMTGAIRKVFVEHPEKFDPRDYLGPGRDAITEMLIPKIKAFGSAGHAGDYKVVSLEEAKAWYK
How it was run: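 Giardia FBPA (40 nM reagent) was preincubated 10 min at RT with compound (up to 57.5 uM final), then substrate plus GAPDH/TPI/NAD/arsenate coupling system with diaphorase/resazurin was added; resorufin fluorescence (525/598 nm) was read after 20 min.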
% is set by controls: 0 for no effect and ±100 for the full control effect; potency is the fitted concentration of half-maximal effect; tags give direction and shape of the fitted curve.

Row | Structure (SMILES) | Potency | activity, negative = inhibition
1 | COc1ccccc1NC(=O)CN1CCC(C(=O)c2ccc(F)cc2)CC1 | inconclusive: 35.4 µM [inhibitor, single point] | 
2 | O=C(CN1CCN(Cc2ccc(F)cc2)CC1)Nc1nc2ccccc2s1 | active: 14.1 µM | 
3 | O=C(c1cccc(F)c1)N1CCN(Cc2ccc3c(c2)OCO3)CC1 | inconclusive: 17.8 µM [inhibitor, partial curve] | 
4 | CCOC(CNC(=O)C1CCN(S(=O)(=O)c2ccc3nc4c(c(C(=O)O)c3c2)CC(C)CC4)CC1)OCC (configuration not stated) | inconclusive: 31.6 µM [inhibitor, partial curve] | 
5 | Cc1cc(=S)n(-c2ccccc2)n1C | inconclusive: 15.8 µM [inhibitor, single point] | 
6 | S=C(NCCc1ccccc1)Nc1c(Cl)cccc1Cl | active: 9.98 µM | 
7 | CCN1CCc2nc(N)sc2C1 | active: 11.2 µM | 
8 | N#C/C(=C\c1ccc(O)c(O)c1)C(N)=S | active: 14.1 µM | 
9 | NS(=O)(=O)c1ccc(NC(=S)NCc2ccc(Cl)cc2)cc1 | active: 15.8 µM | 
10 | Cc1ccc2[nH]c(=O)c(C(c3nnnn3C3CCCC3)N(Cc3cccnc3)Cc3ccco3)cc2c1 (configuration not stated) |  | inactive: -0.368%
11 | Cc1cc(Nc2cc(C)on2)n2ncnc2n1 | inconclusive: 17.7 µM [inhibitor, partial curve] | 
12 | COc1ccccc1C1C(C#N)=C(N)Oc2cc(C)n(CCCn3ccnc3)c(=O)c21 (configuration not stated) | inconclusive: 17.7 µM [inhibitor, single point] | 
13 | Cc1nc2ccc(NC(=S)NCc3ccccc3)cc2nc1C | inconclusive: 22.3 µM [inhibitor, single point] | 
14 | COc1ccc(-n2c(COc3ccc(C)cc3)n[nH]c2=S)cc1 | inconclusive: 10 µM [activator, partial curve] | 
15 | C/C(CC(c1ccccc1)c1c(O)c2ccccc2oc1=O)=N\NC(N)=S (configuration not stated) | inconclusive: 22.3 µM [inhibitor, partial curve] | 
16 | O=C(/C=C/c1ccccc1)NC(=S)NNC(=O)c1ccco1 | inconclusive: 4.46 µM [activator, single point] | 
17 | C[C@H](N)C(=O)N[C@@H](Cc1ccc(F)cc1)C(=O)N[C@@H](CCCN=C(N)N)C(=O)N[C@@H](CC1CCCCC1)C(=O)N[C@@H](CCCCN=C(N)N)C(=O)N[C@@H](Cc1ccc(O)cc1)C(N)=O |  | inactive: 3.21%
18 | Cc1ccc(C)c(N2CCN(CC3CCCCC3)CC2)c1 | inconclusive: 22.4 µM [inhibitor, partial curve] | 
19 | Cc1cc(Sc2nc(N)ncc2[N+](=O)[O-])ncn1 | active: 17.7 µM | 
20 | CSc1ccc(NC(=O)Nc2cccn(Cc3ccccc3)c2=O)cc1 |  | inactive: -3%
21 | OCCN1CCN(C(=S)Nc2cccc(C(F)(F)F)c2)CC1 | inconclusive: 19.9 µM [inhibitor, partial curve] | 
22 | COc1ccc(S(=O)(=O)N2CCN(Cc3cc(OC)c(OC)cc3OC)CC2)cc1 | inconclusive: 14.1 µM [inhibitor, partial curve] | 
23 | Cc1noc(NS(=O)(=O)c2ccc(NC(=O)C(CC(C)C)N3C(=O)c4ccccc4C3=O)cc2)c1C (configuration not stated) |  | inactive: 17.6%
24 | CCN(CC)S(=O)(=O)c1ccc(NCc2ccccn2)nc1 |  | inactive: 29.3%

Row | Structure (SMILES) | Potency | activity, negative = inhibition
25 | O=C(O)CC(NC(=O)C(c1ccccc1)c1ccccc1)c1ccc(F)cc1 (configuration not stated) |  | inactive: 11.4%
26 | CCOC(=O)N1CCN(C(=O)c2ccc3c(=O)n(Cc4ccccc4)c(=S)[nH]c3c2)CC1 | inconclusive: 35.4 µM [inhibitor, single point] | 
27 | CN(Cc1ccc(Br)cc1)CC(O)COc1cccc(Br)c1 (configuration not stated) | inconclusive: 28.2 µM [inhibitor, single point] | 
28 | Cc1ccc(-c2csc(N(CCO)CCCn3c(C(F)(F)F)nc4ccccc43)n2)cc1 |  | inactive: -23%
29 | Cc1ccc(S(=O)(=O)N(CC(=O)NCc2ccncc2)C2CCCCC2)cc1 |  | inactive: 0.67%
30 | O=C(O)CSCC(=O)NCc1c(Cl)cccc1Oc1ccccc1 |  | inactive: 10.3%
31 | CCCCCCn1c(=O)[nH]c2nc3cc(N)c(C)cc3nc2c1=O | inconclusive: 6.29 µM [inhibitor, partial curve] | 
32 | S=C(N/N=C/c1ccc(Cl)cc1)N1CCOCC1 | inconclusive: 15.8 µM [activator, single point] | 
33 | CC1(C(=O)NC(=S)NNC(=O)c2ccncc2)CCCCC1 | inconclusive: 19.9 µM [activator, single point] | 
34 | Cc1ccc(S(=O)(=O)N2CCC(C(=O)C3C(=O)CC(C)(C)CC3=O)CC2)cc1 |  | inactive: -1.29%
35 | Cc1ccc(-c2noc(CNc3ccccc3)n2)cc1 |  | inactive: -3.86%
36 | CCc1nnc(NC(=O)c2ccc(S(=O)(=O)N(C)Cc3ccccc3)cc2)o1 | inconclusive: 35.5 µM [inhibitor, single point] | 
37 | Cc1cccc(C)c1NC(=O)CSc1ncnc2nc[nH]c12 | inconclusive: 14.1 µM [inhibitor, partial curve] | 
38 | Cc1ccc2cc(C(c3nnnn3Cc3ccccc3)N3CCc4ccccc43)c(=O)[nH]c2c1C (configuration not stated) | inconclusive: 15.8 µM [inhibitor, single point] | 
39 | CCCc1nc2c(C)cc(C)cc2c(N)c1CC | inconclusive: 22.4 µM [inhibitor, partial curve] | 
40 | CN(C)CCN(C(=O)c1cccc2ccccc12)c1nc2cc3c(cc2s1)OCO3 | inconclusive: 25.1 µM [inhibitor, single point] | 
41 | N#C/C(=C/c1ccc(O)c(O)c1)C(=O)NCc1ccc(Cl)cc1 | inconclusive: 8.91 µM [inhibitor, partial curve] | 
42 | O=C1N=c2ccccc2=C1c1c(O)n(-c2cccc(F)c2)[nH]c1=O | inconclusive: 11.2 µM [inhibitor, partial curve] | 
43 | CCc1ccc(NC(=O)[C@H](C)NC(=O)C2CCN(C(=O)[C@@H](N)Cc3ccccc3)CC2)cc1 | inconclusive: 22.4 µM [inhibitor, partial curve] | 
44 | c1ccc(-c2nc(-c3ccccn3)nc(-c3ccccn3)n2)nc1 | inconclusive: 15.8 µM [inhibitor, partial curve] | 
45 | Cc1cc(C)c(OCCCCCn2ccnc2)c(C)c1 | inconclusive: 12.6 µM [inhibitor, partial curve] | 
46 | COc1ccc(-n2c(C)cc(/C=N/Nc3nnc(C)n3N)c2C)cc1 | active: 6.29 µM | 
47 | COC(=O)c1ccc(COc2ccccc2/C=N/NS(=O)(=O)c2ccccc2)cc1 |  | inactive: 1.14%
48 | COc1ccc(CN2CCN(c3ccccc3)CC2)c(C)c1C | inconclusive: 19.9 µM [inhibitor, partial curve] | 

Row | Structure (SMILES) | Potency | activity, negative = inhibition
49 | COCCn1nnnc1C(c1cc2cc(C)ccc2[nH]c1=O)N1CCc2ccccc21 (configuration not stated) | inconclusive: 12.6 µM [inhibitor, partial curve] | 
50 | FC(F)(F)c1ccc(C2[C@H]3CN(Cc4cccnc4)[C@H](c4ccccc4)C34CC2(c2cccnc2)C4)cc1 (some centres not stated) | inactive | 
51 | NS(=O)(=O)c1ccc(NC(=S)NC(=O)c2ccc(Br)o2)cc1 | active: 17.7 µM | 
52 | CCOC(=O)CSc1nc(-c2ccccn2)ncc1OC | inconclusive: 19.9 µM [inhibitor, single point] | 
53 | CC1CCCCN1C(=O)CNCc1ccc(F)cc1 (configuration not stated) | inconclusive: 17.8 µM [inhibitor, single point] | 
54 | COc1cc(C(=O)N2CCN(Cc3ccccn3)CC2)cc(OC)c1OC | inconclusive: 14.1 µM [inhibitor, partial curve] | 
55 | CCC1CCCCN1CC(=O)c1c(C)[nH]c2cc(C)ccc12 (configuration not stated) | inconclusive: 28.2 µM [inhibitor, single point] | 
56 | C/C(=N\NC(N)=S)c1ccc(-n2ccnc2)cc1 | inconclusive: 17.7 µM [inhibitor, single point] | 
57 | CC(=O)C1=C(C)OC(N)=C(C#N)C1c1ccncc1 (configuration not stated) | inconclusive: 2.51 µM [inhibitor, full curve] | 
58 | Cc1oc2ccc(O)c(CN3CCOCC3)c2c1C(=O)c1ccc(Cl)cc1 | inconclusive: 44.6 µM [inhibitor, single point] | 
59 | COc1ccc(CCNCC(O)COc2cccc(C(C)=O)c2)cc1OC (configuration not stated) | inconclusive: 25.1 µM [inhibitor, partial curve] | 
60 | CCc1ccc(OCCCCCn2ccnc2)cc1 | inconclusive: 17.8 µM [inhibitor, partial curve] | 
61 | COc1ccc(/C=N\NC(=O)c2ccccc2OC)cc1COc1ccccc1C |  | inactive: 1.74%
62 | COc1ccc(CNN2CCCCC2C(=O)Nc2ccc(OC)c(OCC(C)C)c2)cc1OC (configuration not stated) | inconclusive: 19.9 µM [inhibitor, single point] | 
63 | O=C1C(c2[nH]c3ccc(S(=O)(=O)O)cc3c2O)=Nc2ccc(S(=O)(=O)O)cc21 | active: 17.7 µM | 
64 | CCC1SC(=NC(=O)c2ccc(Cl)c(Cl)c2)NC1=O (configuration not stated) |  | inactive: -0.363%
65 | CCCC(=O)Nc1nc2nc(C)cc(=O)n2[nH]1 | inconclusive: 22.3 µM [inhibitor, partial curve] | 
66 | Cc1cc(C)c(S(=O)(=O)N2CCN(c3ccc([N+](=O)[O-])c(-n4nc(C)cc4C)c3)CC2)c(C)c1 |  | inactive: -0.271%
67 | CCc1nnc(NC(=O)CN2CCN(Cc3ccccc3Cl)CC2)s1 | inconclusive: 7.94 µM [inhibitor, full curve] | 
68 | Oc1c(C=NCc2ccc(F)cc2)[nH]c2ccc(Br)c(Cl)c12 | inconclusive: 11.2 µM [inhibitor, partial curve] | 
69 | Cc1cccc(Cn2nc(-n3cccc3)c3c(C)cc(C)nc32)c1 |  | inactive: 6.38%
70 | O=C(O)/C=C/C(=O)NCC1CCC(CNC(=O)/C=C/C(=O)O)CC1 (configuration not stated) |  | inactive: -8.81%
71 | Cc1cccc2cc(C#N)c(NCc3ccccc3)nc12 | active: 17.7 µM | 
72 | CC(=O)c1cccc(N=Cc2c(O)ccc3ccccc23)c1 | inconclusive: 25.1 µM [inhibitor, single point] | 
